Test results from publication PMC4336329 (PLoS ONE, 2015).
Hit rate of the full screen: of about 310,000 compounds, about 2,200 (0.71%) showed an effect of 50% or more. The effect is printed as a negative number. The list shows a part of the results.

target: human ether-à-go-go-related gene (hERG) potassium channel (human, UniProt Q12809); test: primary screen, population patch clamp on CHO cells stably expressing hERG
Sequence (Q12809 whole entry, looked up): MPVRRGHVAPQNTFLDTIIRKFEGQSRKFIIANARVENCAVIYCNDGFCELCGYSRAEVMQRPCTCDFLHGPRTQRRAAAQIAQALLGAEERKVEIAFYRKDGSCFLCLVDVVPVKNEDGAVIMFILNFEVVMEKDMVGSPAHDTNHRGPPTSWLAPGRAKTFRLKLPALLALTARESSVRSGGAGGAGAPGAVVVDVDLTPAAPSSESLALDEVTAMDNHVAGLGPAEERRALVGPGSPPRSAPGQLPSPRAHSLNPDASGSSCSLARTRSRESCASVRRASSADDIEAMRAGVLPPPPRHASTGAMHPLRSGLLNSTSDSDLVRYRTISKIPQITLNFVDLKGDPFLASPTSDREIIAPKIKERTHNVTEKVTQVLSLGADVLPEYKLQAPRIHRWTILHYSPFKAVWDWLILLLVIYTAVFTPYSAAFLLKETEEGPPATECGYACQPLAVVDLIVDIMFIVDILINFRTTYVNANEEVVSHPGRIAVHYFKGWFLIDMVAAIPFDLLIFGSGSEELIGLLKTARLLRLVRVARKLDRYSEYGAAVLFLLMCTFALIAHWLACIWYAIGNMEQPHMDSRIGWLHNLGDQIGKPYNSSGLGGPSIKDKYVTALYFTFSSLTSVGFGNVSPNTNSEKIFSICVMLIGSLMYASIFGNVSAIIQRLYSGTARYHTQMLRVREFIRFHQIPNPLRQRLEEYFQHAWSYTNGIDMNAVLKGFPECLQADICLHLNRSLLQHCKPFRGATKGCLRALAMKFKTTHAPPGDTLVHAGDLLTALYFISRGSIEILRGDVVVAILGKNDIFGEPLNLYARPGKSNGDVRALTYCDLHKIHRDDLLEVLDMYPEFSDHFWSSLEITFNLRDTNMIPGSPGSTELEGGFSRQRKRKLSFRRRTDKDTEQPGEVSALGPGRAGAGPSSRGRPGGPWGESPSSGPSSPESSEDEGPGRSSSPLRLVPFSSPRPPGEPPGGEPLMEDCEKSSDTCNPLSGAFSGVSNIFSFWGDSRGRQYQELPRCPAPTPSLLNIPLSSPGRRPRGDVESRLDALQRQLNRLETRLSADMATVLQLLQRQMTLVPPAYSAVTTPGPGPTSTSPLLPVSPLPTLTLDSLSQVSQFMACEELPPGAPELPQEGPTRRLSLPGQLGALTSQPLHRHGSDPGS

Structure (SMILES) | hERG current change (%, negative = inhibition) at 1uM [%]
O=C(O)c1cc(S(=O)(=O)N2CCN(c3ccccn3)CC2)ccc1Cl | 12.4
C[C@H](NC(=O)c1nc[nH]c1C(=O)N[C@@H](C)c1ccccc1)C(=O)OC(C)(C)C | 7.34
Cc1cc(O)c(C(=O)/C=C/c2ccccc2)c(=O)o1 | 13.5
CCc1nccn1S(=O)(=O)c1ccc(OC)c(C)c1C | 9.2
O=C(Nc1ccc([N+](=O)[O-])cc1)c1nc[nH]c1C(=O)NC1CCCCC1 | 13
CC1Oc2ccccc2C=C1/C=C1/SC(N2CCOCC2)=NC1=O (stereo not drawn) | 0.416
CCOC(=O)C1CCCN(C2CCN(Cc3nc(-c4ccccc4)no3)CC2)C1 (stereo not drawn) | -11.2
Cc1cc(-c2nnc(SCC(=O)NC3CC3)n2C(C)C)cs1 | -7.49
Cc1cc(NC(=O)CCCS(=O)(=O)c2nc(-c3cccs3)cc(C(F)(F)F)n2)no1 | 7.58
CCN1C(=O)N/C(=C/c2ccc(C)o2)C1=O | 10.8
Cc1ccc(Oc2nc3ccccc3n3c(C)nnc23)c(C)c1 | 0.491
COc1ccccc1CCC(=O)Nc1ccc(S(=O)(=O)Nc2cc(C)nc(C)n2)cc1 | 11.7
CC(C)(C)c1ccc(C(=O)N2CCC(=O)N(C(COCc3ccccc3)Cc3ccccc3)CC2)cc1 (stereo not drawn) | 9.25
COc1ccc(C2Nc3ccccc3NC3=C2C(=O)CC(C)(C)C3)c(OC)c1OC (stereo not drawn) | -1.63
CCN(CC)c1ccc(N2C(=O)C3CCCCC3C2=O)cc1[N+](=O)[O-] (stereo not drawn) | 14.9
Cc1ccc(-n2nc(C(N)=O)nc2-c2ccccc2)cc1 | 16.6
Cc1cc(O)c(-c2cc(C(=O)Nc3ccc(S(=O)(=O)N4CCOCC4)cc3)[nH]n2)cc1C | 8.26
Cc1ccc(C2(CC(=O)O)CCOC(C)(C)C2)cc1 (stereo not drawn) | 11.4
CC(C)(C)C(=O)Nc1c2c(nn1-c1cccc(Cl)c1)CS(=O)(=O)C2 | -5.4
CCOP(=S)(OCC)Oc1nc(Cl)c(Cl)cc1Cl | 14.5
COC(=O)c1cc(COc2ccc3c(c2)oc(=O)c2ccccc23)c(C)o1 | 2.66
COC(=O)c1cc(CNC(=O)c2cccc(Cl)c2)ccc1OC | -4.83

Structure (SMILES) | hERG current change (%, negative = inhibition) at 1uM [%]
CCCCOC(=O)c1ccc(NC(=O)C2CCCO2)cc1 (stereo not drawn) | 3.51
O=C(NCCN1CCOCC1)c1cc(-c2ccccc2Cl)nc2ccccc12 | 4.98
CCOC(=O)C1=C(c2ccccc2)NC(SC)=C(C#N)C1c1ccco1 (stereo not drawn) | 4.4
CCSc1nc2sc3c(c2c2nnc(SCC(=O)NCc4ccco4)n12)CCCC3 | 8.22
Cc1cccc(C(=O)Nc2nnc(S(=O)(=O)N3CCCCCC3)s2)c1 | 5.72
O=C(COc1cccc(C(F)(F)F)c1)Nc1ccc(S(=O)(=O)N2CCCCC2)cc1 | -1.57
C=C1c2cc(CC)ccc2NC(=O)N1c1ccc(C)cc1 | 18.4
CN1C(=O)/C(=C\C=C2/CCCN2C)N(C)C1=S | 9.99
CC(=O)N1CCN(C(=O)c2ccc3c(c2)S(=O)(=O)c2ccccc2C3=O)CC1 | 12.4
O=C(C1CCCN(S(=O)(=O)c2ccc(Cl)cc2)C1)N1CCCC1 (stereo not drawn) | -1.98
COc1ccc(Nc2ccc([N+](=O)[O-])cn2)cc1 | 10.8
Cn1c(=O)c2ccccc2n(CC(=O)N2CCCc3ccccc32)c1=O | 14.3
CN(C)S(=O)(=O)c1cccc(C(=O)N2CCc3ccccc32)c1 | 4.23
CCC(C)(C)n1nnnc1C(c1ccc(OC)c(OC)c1)N1CCN(c2ccc(F)cc2)CC1.Cl (stereo not drawn) | -5.98
Nc1c(CO)nnn1-c1ccccc1 | 11
Cc1ccc(Cn2c(CCNc3nc(-c4ccc(Cl)c([N+](=O)[O-])c4)cs3)nc3cc(C(=O)NCCCO)ccc32)cc1 | 11.3
COc1ccc(CNc2nc3c(c(=O)n(Cc4ccc(F)cc4)c(=O)n3C)n2C)cc1 | 2.27
CC(C)c1ccc(N(CC(=O)Nc2ccc(S(=O)(=O)N3CCOCC3)cc2)S(C)(=O)=O)cc1 | 21.3
COc1ccc(CCNC(=O)C2CC(=O)N(C3CCCCCCC3)C2)cc1OC (stereo not drawn) | -9.65
O=C1C(=O)N2C(=C1C(=O)N1CCCCCC1)c1ccccc1CC21CCCC1 | 16.2
CCCOC(=O)c1cc2ccccc2oc1=O | 9.65
O=C(O)c1ccc(COCC(F)(F)F)cc1 | 7.88

Structure (SMILES) | hERG current change (%, negative = inhibition) at 1uM [%]
O=S(=O)(NC1CC1)c1ccccc1 | 14.3
COc1ccc(Cl)cc1NC(=O)CN(C)C(=O)c1ccc2c(c1)OCCO2 | 14.3
Cc1ccnc(NC(=O)c2cccc(NC(=O)Cc3ccccc3)c2)c1 | 4.84
COc1ccc(NC(=O)Nc2cccc(F)c2)c(OC)c1 | 13.8
Cc1ccc(Cc2cnc(NC(=O)/C(C#N)=C/c3ccc(-c4ccccc4[N+](=O)[O-])o3)s2)cc1 | 20.1
CCC[N+]1(CC#CC(O)(c2ccccc2)C2CCCCC2)CCCCC1.[Br-] (stereo not drawn) | 13.8
CN1C(=O)c2ccc(N3CCCC3)cc2C1=O | 14.2
Cc1sc(NC(=O)/C=C/C(=O)O)c(C(N)=O)c1-c1ccc(C(C)(C)C)cc1 | 2.19
Cc1cccc(Oc2coc3cc(OC(=O)c4cncc(Br)c4)ccc3c2=O)c1 | 2.87
COc1cc2c(cc1OC)-c1c(OC)c(OC)c(OC)c3ccnc(c13)C2=O | -2.02
COc1ccc(-c2cn(Cc3ccc4ccccc4c3)nn2)cc1 | 6
CCOc1cc(-c2sc(Nc3cc(C)ccc3OC)n[n+]2-c2ccccc2)ccc1OC.[Cl-] | -16.5
COc1cccc(NC(=O)CN(C)C(=O)C2CCN(C(=O)c3ccccc3C)CC2)c1 | 2.62
CCOc1ccccc1C1C(C#N)=C(N)N(N(C)C)C2=C1C(=O)CCC2 (stereo not drawn) | 11.5
Cc1ccc(S(=O)(=O)NCC[C@@]2(C)C3CCC2(C)C(=O)C3)cc1 (stereo partly drawn) | 12.8
COc1ccc(OCc2nnc(SCC(=O)c3ccccc3)o2)cc1 | 17.5
COc1ccc(Cn2ccnc2SCC(=O)Nc2ccccc2)cc1 | 3.43
CS(=O)(=O)N(CC(=O)NC1CCCC1)c1ccc2c(c1)OCCO2 | -1.03
O=C(CCCNC(=O)c1ccc(Cl)cc1)Nc1ccc(F)c(S(=O)(=O)N2CCOCC2)c1 | -1.65
Cc1cc(C(=O)NNC(=S)NCC2CCCO2)cs1 (stereo not drawn) | -7.57
O=C(CCc1nc(-c2ccc(Cl)cc2)no1)NC1CCCC1 | 6.95
Cn1cc(CN2CC3C[C@@H]4CC2C[C@H](C3)C4)c(-c2ccc3c(c2)OCCO3)n1 | 3.82

Structure (SMILES) | hERG current change (%, negative = inhibition) at 1uM [%]
Cc1ccccc1NC(=O)c1cn(-c2ccccc2)nc1-c1ccccc1 | 0.301
O=C1C2CC=CCC2C(=O)N1c1cccc(OS(=O)(=O)c2ccc3ccccc3c2)c1 (stereo not drawn) | -0.809
CCOC(=O)N1CCC(N2CCCC(CO)(Cc3cccc(OC)c3)C2)CC1 (stereo not drawn) | -25.6
Cc1ccc(S(=O)(=O)NC2CC2)cc1[N+](=O)[O-] | 13.4
COc1cc(/C=C(/C(=O)O)c2ccc(-c3ccccc3)cc2)cc(OC)c1OC | 15
Cc1ccc(COC(=O)CCc2nc3ccccc3c(=O)[nH]2)cc1 | 1.05
Cc1cccc2c(=O)c(C(=O)NCc3ccc(F)cc3)c[nH]c12 | 4.66
O=C(CN1CCN(c2nc(-c3ccc(Cl)cc3)cs2)CC1)NCc1ccco1 | -11.4
Oc1ccc2ccccc2c1CN1CC=C(c2ccccc2)CC1 | 17.5
c1ccc(-c2nnc(-c3c[nH]c4ccccc34)nc2-c2ccccc2)cc1 | 7.1
COc1ccc(/C=C(\NC(=O)c2ccco2)C(=O)NC(Cc2ccccc2)C(=O)O)cc1 (stereo not drawn) | 7.1
O=C(COC(=O)CNC(=O)c1cccc([N+](=O)[O-])c1)NCc1ccco1 | 4.92
CN(CC(=O)Nc1cccnc1)S(=O)(=O)c1ccccc1 | 10.2
CCc1c(C)nc(N)c(C#N)c1-c1ccccc1 | 10.2
O=C(O)C1CC=CCC1C(=O)N1CCc2ccccc21 (stereo not drawn) | 15.7
Cc1ccc2cc(NC(=O)c3ccccc3)ccc2n1 | 15.2
CNC(=O)c1cnn(-c2nc(-c3ccc(OC)cc3)cs2)c1C(F)(F)F | 13.1
Cc1cc[n+](-c2nc3ccccc3nc2[N-]S(=O)(=O)c2cccs2)cc1C | 1.23
COc1ccc(-n2c(C)cc(/C=C3\SC(=S)NC3=O)c2C)cc1 | 15
Cc1ccc(C(=O)N/C(=C\c2cccs2)C(=O)NCc2ccncc2)cc1 | -38.5
CC(=O)Nc1ccc(N(CC(=O)NC2CCCC2)C(=O)CCC(=O)Nc2cc(C)on2)cc1 | 19.8
